From PubChem BioAssay AID493208 (National Center for Advancing Translational Sciences (NCATS), 2011)
Hit rate of the full screen: of about 44,000 compounds, about 340 (0.77%) were called active. Roughly 5% stayed inconclusive and do not appear here. Calls follow the shape of the dose curve; as a rule, active = well fitted inhibition curve with a large enough effect; inconclusive = small, poorly fitted or top-dose-only effect; inactive = flat fitted curve, though single readings scatter. Some of the results follow.

Experiment: Acumen qHTS Assay for Inhibitors of the mTORC1 Signaling Pathway in MEF (Tsc2-/-, p53-/-) Cells: Sytravon;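 also: plate controls were DMSO for no effect and rapamycin for full effect; nearly all actives have a fitted effect of over 50% in size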
Conditions: phospho-rpS6 immunofluorescence/PI, 24 h; series mostly up to 38.3 µM; activity change, negative = inhibition: at the top concentration
Summary of the method: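 Immunofluorescence of rpS6 phosphorylation in Tsc2-/-, p53-/- MEFs after 24 h compound exposure, normalized to propidium iodide signal. Activity is expressed as % positive cells, thresholded with 7.5 nM rapamycin.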

Activity change, negative = inhibition, inactive:
Cc1ccc(NC(=O)CCc2nnc3n(CC(C)C)c(=O)c4ccccc4n23)cc1C -0.0176%, Cc1ccc(-n2nc3c(N4CCC(C(=O)N5CCCCC5)CC4)nnc(C)c3c2C)cc1 -6.45%, COc1ccc(CNC(=O)Cn2nc(C)c3nn(-c4ccc(Cl)cc4)c(C)c3c2=O)cc1 -0.654%, CCCc1cc(N2CCN(c3cc(Cl)ccc3C)CC2)n2cnnc2n1 -4.6%, Cc1ccc2oc(C(=O)Nc3c(C(=O)Nc4ccccc4)oc4ccccc34)cc(=O)c2c1 3.75%, O=S(=O)(c1ccccc1)c1nnn2c1nc(NCc1cccs1)c1sccc12 1.23%, Cc1ccc(NC(=O)CCn2cccn2)cc1Cl 0.152%, CCOc1ccc(CCNC(=O)CN2C(=O)COc3ccc(S(=O)(=O)N4CCC(C)CC4)cc32)cc1 -5.44%, COc1ccc(NC(=O)Cn2c(=O)n(-c3ccccc3)c(=O)c3c4c(sc32)CCCC4)cc1 -9.41%, Cc1cc(C)cc(Nc2cc(-c3ccccc3)nc(C)n2)c1 -15.9%, CCCCN(C)c1nnc(NC(=O)Nc2cccc(C(C)=O)c2)s1 -2.21%, Cc1ccc(NC2=CC(c3ccccc3F)N(c3ccc(C)cc3)C2=O)cc1 (stereo unspecified) 1.31%, COC(=O)c1c(NC(=O)c2cc3nc(-c4ccc(OC)cc4)cc(C(F)(F)F)n3n2)sc2c1CCCC2 -0.216%, CCOc1ccccc1NC(=O)C(Cc1ccccc1)NS(=O)(=O)c1ccc2c(c1)oc(=O)n2C (stereo unspecified) -6.39%, COc1ccc(-c2cc3nc(C)c(CCC(=O)N4CCN(c5cccc(Cl)c5)CC4)c(C)n3n2)c(OC)c1 -12.4%, O=C(NCc1cccs1)c1ccc2c(c1)N(Cc1ccccc1Cl)C(=O)c1ccccc1S2 1.6%, O=C(CN1C=NS(=O)(=O)c2ccccc21)Nc1ccc(F)cc1 -4.18%, Cc1ccccc1-c1ncnn1-c1sc2c(c1C#N)CCCCC2 0.743%, CC(C)Cn1c(=O)c2ccccc2n2c(CCC(=O)NCc3ccccc3Cl)nnc12 0.658%, CC(=O)NCCNC(=O)CCCc1nnc2n(C)c(=O)c3sccc3n12 -14.9%, COc1ccc(CNC(=O)c2cc3cc(C)ccc3n2C)cc1 -1.83%, CCCCN(CCCC)C(=O)CN(C)S(=O)(=O)c1ccc2c(c1)c(=O)n(C)c(=O)n2C -13.2%, CC(Nc1ccc(-c2nc(-c3ccncc3)no2)cc1[N+](=O)[O-])c1ccccc1 (stereo unspecified) 1.74%, O=C(NCc1ccccc1Br)c1ccc2nc(N3CCCCC3)sc2c1 0.237%, Cc1sc2c(c1C)c(=O)n(CCc1ccccc1)c(=O)n2Cc1cccc(F)c1 -2.75%, Cc1ccc(-n2c(=O)c3c(c4cc(C)ccc4n3C)n(CC(=O)NCc3ccccc3Cl)c2=O)cc1 -2.38%, CCOC(=O)c1ccc(CN(Cc2ccccc2)S(=O)(=O)c2ccc(C)cc2)cc1 2.09%, COc1ccc(CCC(=O)NC2CC(=O)N(c3ccc(C)cc3)C2)cc1 (stereo unspecified) 0.052%, CCCCOC(=O)c1ccc(Nc2ncnc3[nH]ncc23)cc1 -22.6%, COc1ccc2oc(=O)cc(CN3CCN(c4ccc(F)cc4)CC3)c2c1 -6.74%, CCCCNC(=O)C(CC)Sc1nnc(-c2cccc(F)c2)c(-c2cccc(F)c2)n1 (stereo unspecified) -5.66%, Cc1cccc(C(=O)Nc2ccc(-c3nc4ccccc4s3)cc2Cl)c1 -0.19%, Cc1cc(C)cc(N2CC(c3nc(-c4ccccc4C)no3)CC2=O)c1 (stereo unspecified) -9.51%, CC(=O)Nc1c(C)nn(-c2ccccc2)c1N1CCC(C(=O)NCc2ccc(Cl)cc2)CC1 0%, CCOC(=O)c1ccc(NC(=O)CN(c2ccc(C)cc2)S(=O)(=O)c2c(C)noc2C)cc1 0.993%, Cc1nc2c(C(=O)NCCc3ccc(Cl)cc3)cnn2c(C)c1Cc1c(F)cccc1Cl 11.2%, Cc1cccc(NC(=O)Cn2c(=O)n(-c3ccccc3Cl)c(=O)c3c(C)c(C(=O)N(C)C)sc32)c1 -2.31%, Cc1ccccc1CNC(=O)C(C)n1nc(C)n2c(cc3occc32)c1=O (stereo unspecified) 0.867%, COc1ccc(CC(=O)Nc2nc3c(s2)CC(C(C)(C)C)CC3)cc1 (stereo unspecified) -1.82%, Cc1ccc(NC(=O)CN2C(=O)CCSc3ccc(S(=O)(=O)N4CCCC4)cc32)cc1 1.16%, COc1ccc(NC(=O)C2=CC(c3cccs3)=NS(=O)(=O)N2C)cc1 -10.4%, CCc1ccc(-c2nc(CSCC(=O)NCc3ccccc3OC)c(C)o2)cc1 -13.5%, Cc1ccc(-c2nc3c(c(SCC(=O)N4CCCCC4)n2)Cc2cc(C)ccc2O3)cc1 1.12%, CCn1c(CNC(=O)c2ccc(OC)cc2)nnc1SCC(=O)Nc1ccc(OC)cc1 -3.65%, Cc1nn(Cc2noc(C(=O)NCc3ccc(F)cc3)n2)c(C)c1Br 2.89%, O=C(NCCc1ccccc1)c1ccc2c(c1)N(Cc1ccccc1Cl)C(=O)c1ccccc1S2 2.39%, COc1ccc(-c2nc3scc(CCNS(=O)(=O)c4ccc(F)cc4F)n3n2)cc1OC -16.1%, COc1ccccc1CNC(=O)C(Cc1ccccc1)NS(=O)(=O)c1ccc2c(c1)oc(=O)n2C (stereo unspecified) 0.128%, CCOC(=O)c1cccc(NC(=O)CSc2ncc3c(n2)-c2ccccc2N(C)S3(=O)=O)c1 0%, CCOc1ccc(CC(=O)Nc2ccc3nc(N4CCCCC4)cc(C)c3c2)cc1OCC -8%, O=C1CC(c2nc3ccccc3n2CCCCOc2ccccc2)CN1c1ccccc1Cl (stereo unspecified) -1.87%, CC1CCCCN1Cc1c(O)ccc2c(=O)c(-c3cccc(Cl)c3)c(C(F)(F)F)oc12 (stereo unspecified) 2.44%, CCc1nnc(NC(=O)CSc2nc3c([nH]c4ccccc43)c(=O)n2-c2cc(C)cc(C)c2)s1 0.58%, Clc1cccc(CNc2ncnc3c2nc2n3CCCC2)c1 3.53%, Cc1nnc(SCc2cc(=O)n3c(C)cccc3n2)s1 -7.48%, COc1ccc(-n2ncc3c(N4CCN(c5cccc(C)c5)C(C)C4)ncnc32)cc1 (stereo unspecified) -4.42%, CCOc1ccc(Cn2c(=O)oc3ccccc32)cc1 -6.61%, Cc1ccc(-c2noc(COc3ccc(Br)c(C)c3)n2)cc1 2.04%, COc1ccc(Cl)cc1NC(=O)CCc1nc(-c2ccccc2F)no1 -8.65%, NS(=O)(=O)c1ccc(NC(=O)CCn2c(=O)oc3ccccc32)cc1 -4.51%, Cc1c(C(=O)N2CCCC2)oc2c1-c1nn(CC(=O)NCc3cccc(Br)c3)cc1CC2 -5.3%, Cc1ccc(-n2nnc3c(sc4nc(C)c(C)cc43)c2=O)cc1Cl -11.4%, Cc1ccc(C)c(NC(=O)C2CCCN(S(=O)(=O)c3c(C)noc3/C=C/N(C)C)C2)c1 (stereo unspecified) -25.6%, COc1ccc(CSc2nc3ncccc3[nH]2)cc1 2.87%, Cn1c(=O)oc2cc(S(=O)(=O)CCC(=O)NCc3ccccc3)ccc21 6.98%, CCOc1ccc(N2CC(c3nc(-c4cc(OC)c(OC)c(OC)c4)no3)CC2=O)cc1 (stereo unspecified) 5.78%, CCOc1ccc(N(C)S(=O)(=O)c2ccc3c(c2)C(C)(C)C(=O)N3C)cc1 -1.64%, COc1cccc(N2CC(NC(=O)c3ccc(S(=O)(=O)N4CCCC4)cc3)CC2=O)c1 (stereo unspecified) 3.96%, O=C(NC1CCCC1)c1c[nH]c2ccc(S(=O)(=O)Nc3cccc(C(F)(F)F)c3)cc2c1=O -19.7%, CCN(c1ccccc1)S(=O)(=O)c1nnc(NC(=O)COc2ccc(OC)cc2)s1 -1.08%, CCOC(=O)c1c(C)oc2nc(C)nc(NCC3CCN(Cc4ccc(Cl)cc4)CC3)c12 -16.8%, CC(=O)OCC#CCSc1nnc(-c2cccc(Br)c2)o1 3.45%, COc1ccc(-c2nc3n(n2)C(c2ccc(OC)cc2)C(C(=O)Nc2cccnc2)=C(C)N3)cc1 (stereo unspecified) 3.68%, CCOC(=O)c1[nH]c(C)c(CCC(=O)N2CCN(c3ccccc3)CC2)c1C -1.45%, COCCNC(=O)C1CCN(S(=O)(=O)c2ccc3c(c2)CCCN3C(C)=O)CC1 0.0433%, CCn1c(CN2CCC(C)CC2)nc2cc(NC(=O)c3ccccc3[N+](=O)[O-])ccc21 -5.16%, Cc1ccc(C)c(Cn2c(=O)c3c(nc4n3CCN4c3ccc(F)cc3)n(C)c2=O)c1 8.22%, CC(=O)NCCNC(=O)CCCc1nnc2n(CCC(C)C)c(=O)c3sccc3n12 1.07%, CCOc1ccc(-n2c(Cc3ccccc3)nnc2SCc2nc(-c3ccccc3C)no2)cc1 -6.12%, CCc1ccc(OC(=O)CSc2nnc(-c3ccc4c(c3)OCO4)o2)cc1 0.0777%, CCS(=O)(=O)N1CCc2cc(C(=O)N3CCN(c4cccc(C(F)(F)F)c4)CC3)ccc21 -8.81%, Cc1ccc(NC(=O)C(=O)NCC(c2cccnc2)N2CCOCC2)cc1C (stereo unspecified) -16.3%, CCOCCCNC(=O)C(c1ccc(OC)cc1)N(Cc1cccs1)C(=O)c1ccc(NC(C)=O)cc1 (stereo unspecified) 9.73%, Cc1ccc(C(=O)c2oc3ccccc3c2NC(=O)c2cc(=O)c3ccccc3o2)cc1 -1.08%, Fc1cccc(-c2nc(-c3ccncc3)no2)c1 -3.57%, COc1cccc(-c2cn3c(n2)sc2cc(C(=O)NCc4cccs4)ccc23)c1 6.89%, COc1ccc(CNC(=O)Cn2ccc3cc(S(=O)(=O)N4CCCCCC4)ccc32)cc1OC -5.74%, COc1ccc2oc(=O)cc(CN3CCN(C(=O)c4ccccc4F)CC3)c2c1 -2.96%, CC(=O)Nc1ccc(NC(=O)CC2Sc3ccccc3NC2=O)cc1 (stereo unspecified) 1.03%, Cc1ccc(Cl)cc1N1CCN(C(=O)c2cc(S(=O)(=O)N3CCC(C)CC3)cn2C)CC1 -7.48%, CCOc1ccc(CNS(=O)(=O)c2ccc3[nH]c4c(c3c2)CCCC4)cc1OC -16%, Cc1c(CNCc2ccc(Cl)cc2)c(C(=O)O)c(C)n1Cc1ccc(F)cc1 5.16%, COc1ccc(NC(=O)CSc2nc3nc(C)cc(C)n3n2)cc1 -0.638%, CCCN(CCC)CCCNC(=O)C1CCC(CNS(=O)(=O)c2ccc(NC(C)=O)cc2)CC1 (stereo unspecified) -5.06%, COc1cccc(CNC(=O)CCc2nnc3n(C)c(=O)c4sccc4n23)c1 2.11%, COc1ccc(NC(=O)Cn2c(CCC(=O)O)ccc2-c2ccccc2)cc1Cl 4.67%
